# Results taken from the supplement of paper PMC12217912.
# Some of the results follow. Sequences were assembled here from the parent chain. Inactive controls read about 0.05.
# B1: TEV protease; numbered along this chain (parent)
# chain: MGESLFKGPRDYNPISSSICHLTNESDGHTTSLYGIGFGPFIITNKHLFRRNNGTLVVQSLHGVFKVKDTTTLQQHLVDGRDMIIIRMPKDFPPFPQKLKFREPQREERICLVTTNFQTKSMSSMVSDTSCTFPSGDGIFWKHWIQTKDGQCGSPLVSTRDGFIVGIHSASNFTNTNNYFTSVPKNFMELLTNQEAQQWVSGWRLNADSVLWGGHKVFMVKPEEPFQPVKEATQL
# Variants of: B1
# Assay: raw area under fraction-flipped curve 0-4 h after induction (AUC4h, not background-subtracted), DNA-recorder readout of cleavage of the substrate (dimensionless); higher = more cleavage of the substrate by the protease variant
# Details: temperature: 34 °C; time window: 0-4 h after rhamnose induction
# 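Also: Bxb1 expression induced with 0.2% (w/v) L-rhamnose at OD600 near 0.5, cultures sampled hourly, flipped fraction per protease–substrate barcode pair counted by paired-end Illumina sequencing.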
Variant,area with substrate EKLYFQS,area with substrate EQLYFQS,area with substrate ESLYFQS,area with substrate EVLYFQS,area with substrate EFLYFQS,area with substrate ELLYFQS,area with substrate EMLYFQS,area with substrate EILYFQS,area with substrate EPLYFQS,area with substrate EWLYFQS
Y179D,0.0486,0.0612,0.0612,0.155,–,–,–,–,–,–
E195L,0.177,0.101,–,0.116,0.0907,0.0598,0.0951,–,–,–
E195T,0.0946,0.109,–,–,–,–,0.098,0.117,0.128,0.0901
E223D,–,0.121,–,0.124,–,–,–,–,–,–
K90M,–,0.115,–,–,–,0.0998,–,–,–,–
N186H,–,–,–,–,–,–,–,0.118,–,–
V210E,–,0.0568,–,–,–,0.068,–,0.0601,–,–
F140S,0.0799,0.0794,–,0.0245,0.0602,–,–,–,–,–
L61T,–,–,0.0772,0.0988,–,–,0.12,0.124,–,–
N175S,–,–,0.0923,–,0.0865,–,–,0.0805,0.0922,0.0681
D91M,0.0834,–,–,–,–,–,0.0906,–,–,–
D137H,0.123,0.103,0.0979,0.0716,–,0.0867,–,–,0.124,–
D137T,–,0.0896,0.0852,0.131,–,–,0.0866,–,–,–
N172R,–,0.0569,0.0581,0.0612,0.0593,–,0.0471,0.068,0.0516,–
N172A,0.0268,–,–,–,–,–,–,–,0.0811,0.0686
E103P,0.11,–,0.101,–,0.117,0.0698,0.126,0.0906,–,0.0989
Q97E,0.111,0.136,0.124,0.123,–,–,–,–,–,–
Q97N,0.11,–,–,0.0919,–,–,–,–,–,0.085
Q97R,–,–,–,–,–,–,–,–,0.14,–
L211D,–,–,–,–,–,–,–,0.13,–,–
L211T,–,–,–,–,0.112,–,–,–,–,–
V58S,0.0731,–,0.0973,0.0049,–,0.0772,–,–,–,–
V58L,–,0.108,0.101,0.0931,–,–,–,–,–,–
V58D,–,–,–,0.0476,0.0588,–,–,–,–,0.0608
N53L,0.0841,–,0.101,–,0.0937,0.102,0.0849,0.099,–,0.0766

# Same assay, conditions: temperature: 34 °C; time window: 0-4 h after rhamnose induction
Variant,area with substrate EYLYFQS,area with substrate ERLYFQS,area with substrate ETLYFQS,area with substrate EELYFQS,area with substrate EGLYFQS,area with substrate EHLYFQS
E195T,0.102,–,–,–,–,–
E223D,–,0.111,–,–,–,–
F140S,–,0.0605,0.0621,–,–,–
L61T,0.11,–,–,–,–,–
N175S,–,0.0708,–,–,–,–
D91M,–,–,–,0.112,–,–
D137H,–,–,–,–,0.0999,0.0995
N172R,–,0.0568,0.077,–,–,–
N172A,0.0521,0.0857,–,–,–,–
E103P,–,0.109,0.0925,–,–,–
Q97E,–,0.0745,–,–,–,–
V58L,0.109,–,–,–,0.0833,0.112
N53L,–,–,–,0.178,0.083,–
